Test results: patent US20260022143A1, “Cyclic Peptide Inhibitors of IL-23” (JANSSEN PHARMACEUTICA NV, priority 2022, published 2026)
Where a name gives a salt, the structure may show the parent alone. Not every detail of the peptide structures is certain; ends, links or a residue may be inferred. At least one compound was matched to its structure with a doubt left. Starred links: 1 amine or outer side, 2 acyl side, 3 side chain; linkers in the order of their positions; H or OH if unused. Positions of bridges follow the written chain, without caps; N, C: chain ends. Non-standard residues stand in square brackets, D forms with d. Residues, ends and D or L forms follow the SMILES beside them. Groups on a side chain read outwards from the residue. *: point of attachment. Me3N+(CH2)2O(CH2)2O(CH2)2CO = C[N+](C)(C)CCOCCOCCC(=O)*; Trp(7-Me) = Cc1cccc2c(C[C@H](N)C(=O)O)c[nH]c12; Hexanoyl(6-NMe3+) = C[N+](C)(C)CCCCCC(=O)*; X30 = C[N+](C)(C)CCOCCOCCOCCOCc1cn(CC*)nn1; X23 = Cn1nnc(CC[C@H](N[*:1])C(=O)[*:2])n1; γGlu = O=C(O)[C@H](CCC(=O)[*:2])N[*:1]; 2Nal = N[C@@H](Cc1ccc2ccccc2c1)C(=O)O; AEF = NCCOc1ccc(C[C@H](N)C(=O)O)cc1; 3Pal = N[C@@H](Cc1cccnc1)C(=O)O; Myristoyl = CCCCCCCCCCCCCC(=O)*; Lys(Me) = CNCCCC[C@H](N)C(=O)O; Pen = CC(C)(S)[C@H](N)C(=O)O; Thp = NC1(C(=O)O)CCOCC1; Dap = NC[C@H](N)C(=O)O; X3 = C[N+](C)(C)CCCCC*; AEEA = NCCOCCOCC(=O)O; Tfa = O=C(C(F)(F)F)*; X61 = COCCOCCCNCC*; Sar = CNCC(=O)O

Biological target: T1, IL-23R (Homo sapiens, UniProt Q5VWK5)
T1 construct: host or cells: HEK293
T1 sequence (Q5VWK5 24-629): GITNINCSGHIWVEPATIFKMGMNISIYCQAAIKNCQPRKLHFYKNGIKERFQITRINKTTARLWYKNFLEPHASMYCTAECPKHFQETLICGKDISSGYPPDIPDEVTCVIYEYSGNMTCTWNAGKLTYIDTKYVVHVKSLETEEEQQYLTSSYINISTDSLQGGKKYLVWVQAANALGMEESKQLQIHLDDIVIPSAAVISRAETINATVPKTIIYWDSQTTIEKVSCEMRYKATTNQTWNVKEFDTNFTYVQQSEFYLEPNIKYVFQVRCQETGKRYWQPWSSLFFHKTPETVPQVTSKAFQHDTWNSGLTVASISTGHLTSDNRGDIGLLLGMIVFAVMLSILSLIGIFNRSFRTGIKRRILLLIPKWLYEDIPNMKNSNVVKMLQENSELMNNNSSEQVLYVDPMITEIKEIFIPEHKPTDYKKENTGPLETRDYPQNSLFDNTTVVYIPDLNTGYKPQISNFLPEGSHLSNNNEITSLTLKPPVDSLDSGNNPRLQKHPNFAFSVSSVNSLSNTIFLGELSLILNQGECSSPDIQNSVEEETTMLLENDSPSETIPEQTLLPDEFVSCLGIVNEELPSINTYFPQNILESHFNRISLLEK
Test: IL23R Reporter Assay
Format: cell-based
Details: HEK293 cells containing IL-23R, IL-12RP1 and STAT-inducible firefly luciferase reporter; 10 ng/mL IL-23 (EC90); 5 h at 37° C.

Row | SMILES | IC50
1 | COCCOCCCNCCOc1ccc(C[C@H](NC(=O)[C@H]2NC(=O)[C@H](CCCCNC(C)=O)NC(=O)[C@H](Cc3c[nH]c4c(C)cccc34)NC(=O)[C@H]([C@@H](C)O)NC(=O)[C@H](CC(N)=O)NC(=O)[C@@H](NC(=O)CCCCC[N+](C)(C)C)C(C)(C)SSC2(C)C)C(=O)N[C@@H](Cc2ccc3ccccc3c2)C(=O)NC2(C(=O)N[C@@H](CNC(C)=O)C(=O)N[C@@H](CC(N)=O)C(=O)N[C@@H](Cc3cccnc3)C(=O)N(C)CC(N)=O)CCOCC2)cc1 [compound 204] ({Hexanoyl(6-NMe3+)}-[Pen]NT[Trp(7-Me)]K(Ac)[Pen]Y(X61)[2Nal][Thp][Dap](Ac)N[3Pal][Sar]-NH2; disulfide 1-6) | 4.6 nM
2 | CCCCCCCCCCCCCC(=O)N[C@@H](CCC(=O)NCCOCCOCC(=O)NCCOCCOCC(=O)NCCCC[C@H](NC(=O)C1(NC(=O)[C@H](Cc2ccc3ccccc3c2)NC(=O)[C@H](Cc2ccc(OCCCCC[N+](C)(C)C)cc2)NC(=O)[C@H]2NC(=O)[C@H](CCCCN(C)C(C)=O)NC(=O)[C@H](Cc3c[nH]c4c(C)cccc34)NC(=O)[C@H]([C@@H](C)O)NC(=O)[C@H](CC(=O)N(C)C)NC(=O)[C@@H](NC(=O)[C@@H](CCCCNC(=O)COCCOCCNC(=O)COCCOCCNC(=O)CC[C@H](NC(=O)CCCCCCCCCCCCC)C(=O)O)NC(=O)CCOCCOCC[N+](C)(C)C)C(C)(C)SSC2(C)C)CCOCC1)C(=O)N[C@@H](CC(N)=O)C(=O)N[C@@H](Cc1cccnc1)C(=O)N(C)CC(=O)N(C)C)C(=O)O [compound 395, cPEG3aCO-k(PEG2PEG2gEC14)-Pen(3)-N(N(Me)2)-T-7MeW-K(NMeAc)-Pen(3)-TMAPF-2Nal-THP-K(PEG2PEG2gEC14)-N-3Pya-Sar-CON(Me)2] ({Me3N+(CH2)2O(CH2)2O(CH2)2CO}-[dK]([AEEA-AEEA-γGlu-Myristoyl])[Pen]D(NMe2)T[Trp(7-Me)][Lys(Me)](Ac)[Pen]Y(X3)[2Nal][Thp]K([AEEA-AEEA-γGlu-Myristoyl])N[3Pal][Sar]-NMe2; disulfide 2-7) | 91 nM
3 | CCCCCCCCCCCCCC(=O)N[C@@H](CCC(=O)NCCOCCOCC(=O)NCCOCCOCC(=O)NCCCC[C@@H]1NC(=O)[C@@H](NC(=O)CCOCCOCC[N+](C)(C)C)C(C)(C)SSC(C)(C)[C@@H](C(=O)N[C@@H](Cc2ccc(OCCCCC[N+](C)(C)C)cc2)C(=O)N[C@@H](Cc2ccc3ccccc3c2)C(=O)NC2(C(=O)N[C@@H](CCCCNC(=O)COCCOCCNC(=O)COCCOCCNC(=O)CC[C@H](NC(=O)CCCCCCCCCCCCC)C(=O)O)C(=O)N[C@@H](CC(N)=O)C(=O)N[C@@H](Cc3cccnc3)C(=O)N(C)CC(=O)N(C)C)CCOCC2)NC(=O)[C@H](CCCCN(C)C(C)=O)NC(=O)[C@H](Cc2c[nH]c3c(C)cccc23)NC(=O)[C@H]([C@@H](C)O)NC1=O)C(=O)O [compound 398, cPEG3aCO-Pen(3)-K(PEG2PEG2gEC14)-T-7MeW-K(NMeAc)-Pen(3)-TMAPF-2Nal-THP-K(PEG2PEG2gEC14)-N-3Pya-Sar-CON(Me)2] ({Me3N+(CH2)2O(CH2)2O(CH2)2CO}-[Pen]K([AEEA-AEEA-γGlu-Myristoyl])T[Trp(7-Me)][Lys(Me)](Ac)[Pen]Y(X3)[2Nal][Thp]K([AEEA-AEEA-γGlu-Myristoyl])N[3Pal][Sar]-NMe2; disulfide 1-6) | 440 nM
4 | CC(=O)NCCCC[C@@H]1NC(=O)[C@H](Cc2c[nH]c3c(C)cccc23)NC(=O)[C@H]([C@@H](C)O)NC(=O)[C@H](CC(N)=O)NC(=O)[C@@H](NC(=O)C(F)(F)F)C(C)(C)SSC(C)(C)[C@@H](C(=O)N[C@@H](Cc2ccc(OCCN)cc2)C(=O)N[C@@H](Cc2ccc3ccccc3c2)C(=O)NC2(C(=O)N[C@@H](CCc3nnn(C)n3)C(=O)N[C@@H](CC(N)=O)C(=O)N[C@@H](Cc3cccnc3)C(=O)N(C)CC(N)=O)CCOCC2)NC1=O [compound 76] (Tfa-[Pen]NT[Trp(7-Me)]K(Ac)[Pen][AEF][2Nal][Thp][X23]N[3Pal][Sar]-NH2; disulfide 1-6) | 3.2 nM
5 | CC(=O)NCCCC[C@@H]1NC(=O)[C@H](Cc2c[nH]c3c(C)cccc23)NC(=O)[C@H]([C@@H](C)O)NC(=O)[C@H](CC(N)=O)NC(=O)[C@@H](NC(C)=O)C(C)(C)SSC(C)(C)[C@@H](C(=O)N[C@@H](Cc2ccc(OCCn3cc(COCCOCCOCCOCC[N+](C)(C)C)nn3)cc2)C(=O)N[C@@H](Cc2ccc3ccccc3c2)C(=O)NC2(C(=O)N[C@@H](CCCCNC(C)=O)C(=O)N[C@@H](CC(N)=O)C(=O)N[C@@H](Cc3cccnc3)C(=O)N(C)CC(N)=O)CCOCC2)NC1=O [compound 252] (Ac-[Pen]NT[Trp(7-Me)]K(Ac)[Pen]Y(X30)[2Nal][Thp]K(Ac)N[3Pal][Sar]-NH2; disulfide 1-6) | 4.6 nM
